Screen size: about 39,000 compounds; about 220 (0.56%) showed activity. Some of the results follow.
What follows are molecules tested on Escherichia coli K-12 BW25113 (assay: relative growth (OD600 normalised to plate interquartile mean) (fraction); higher = less growth inhibition, active = 0.2 or less). Settings: 50 µM; LB; incubation time: overnight (16-24 h).
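Also: static incubation at 37 °C against the wild-type strain, values averaged over two biological replicates.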

Row | Compound | relative growth
1 | Cc1cn([C@H]2C=C[C@@H](CO)O2)c(=O)[nH]c1=O | inactive: 0.685
2 | Cc1ccc(S(=O)(=O)N(C)C[C@@H]2Oc3ccc(NC(=O)C4CC4)cc3C(=O)N([C@H](C)CO)C[C@H]2C)cc1 | inactive: 1.02
3 | CCCN1C[C@H](C)[C@@H](OC)CN(C)C(=O)c2cc(NS(=O)(=O)c3cn(C)cn3)ccc2OC[C@H]1C | inactive: 1.04
4 | Cc1ccc(S(=O)(=O)Nc2cccc3c2O[C@@H](CN(C)S(=O)(=O)c2ccc(F)cc2)[C@H](C)CN([C@H](C)CO)C3=O)cc1 | inactive: 1.01
5 | C[C@@H]1CN([C@H](C)CO)C(=O)Cc2cc(NC(=O)Cn3cnnn3)ccc2O[C@@H]1CN(C)Cc1ccc(C(F)(F)F)cc1 | inactive: 1.02
6 | C[C@@H]1CN([C@@H](C)CO)C(=O)c2cccc(NC(=O)Nc3ccc(C(F)(F)F)cc3)c2O[C@H]1CN(C)Cc1ccc(C(F)(F)F)cc1 | inactive: 0.977
7 | NC(=S)Nc1ccc(S(N)(=O)=O)cc1 | inactive: 1.04
8 | O=C(C[C@@H]1CC[C@H]2[C@@H](COC[C@H](O)CN2C(=O)Nc2ccc(Cl)c(Cl)c2)O1)NCc1ccncc1 | inactive: 0.921
9 | COc1ccc(S(=O)(=O)Nc2ccc3c(c2)C(=O)N([C@@H](C)CO)C[C@H](C)[C@@H](CN(C)C(=O)Nc2cccc4ccccc24)OCCCC[C@@H](C)O3)cc1 | inactive: 1.02
10 | C[C@H]1CN([C@@H](C)CO)C(=O)c2cc(C#CCN(C)C)cnc2O[C@H]1CN(C)Cc1ccc(C(=O)O)cc1 | inactive: 0.973
11 | C[C@H]1CN([C@@H](C)CO)C(=O)c2cc(-c3ccc(C(=O)N(C)C)cc3)cnc2O[C@@H]1CN(C)C(=O)c1ccncc1 | inactive: 0.987
12 | C[C@H](CO)N1C[C@H](C)[C@@H](CN(C)C(=O)CCC(F)(F)F)OCCCC[C@H](C)Oc2ccc(NC(=O)Nc3ccccc3)cc2C1=O | inactive: 1.02
13 | C[C@H]1CN([C@@H](C)CO)C(=O)c2cc(C#CC3CCCCC3)cnc2O[C@H]1CN(C)C(=O)Cc1ccccn1 | inactive: 0.977
14 | COc1ccc(NC(=O)Nc2ccc3c(c2)[C@H]2C[C@H](CC(=O)NCc4ccncc4)O[C@@H](CO)[C@H]2O3)cc1 | inactive: 0.994
15 | Cc1noc(C)c1S(=O)(=O)Nc1ccc2c(c1)C(=O)N([C@H](C)CO)C[C@H](C)[C@@H](CN(C)S(=O)(=O)c1cn(C)cn1)O2 | inactive: 1.01
16 | O=C(C[C@@H]1C[C@H]2c3cc(NC(=O)c4ccc5c(c4)OCO5)ccc3O[C@H]2[C@H](CO)O1)NCC(F)(F)F | inactive: 1.02
17 | C[C@H](CO)N1C[C@H](C)[C@H](CN(C)S(=O)(=O)c2ccccc2)Oc2c(NC(=O)c3cnccn3)cccc2C1=O | inactive: 0.987
18 | C[C@H]1CN([C@@H](C)CO)C(=O)Cc2cc(NS(=O)(=O)c3ccccc3)ccc2O[C@H]1CN(C)Cc1ccc(-c2ccccc2)cc1 | inactive: 1.02
19 | C[C@@H]1CN([C@H](C)CO)C(=O)c2cc(NC(=O)CCC(F)(F)F)ccc2O[C@H]1CN(C)C(=O)Nc1cccc2ccccc12 | inactive: 0.969
20 | COc1ccc(S(=O)(=O)Nc2ccc3c(c2)C(=O)N([C@@H](C)CO)C[C@H](C)[C@H](CN(C)C(=O)Nc2c(C)noc2C)OCCCC[C@H](C)O3)cc1 | inactive: 1.03

Row | Compound | relative growth
21 | COc1ccc(S(=O)(=O)Nc2ccc3c(c2)C(=O)N([C@H](C)CO)C[C@H](C)[C@H](CN(C)C(=O)C2CCCCC2)OCCCC[C@H](C)O3)cc1 | inactive: 1.02
22 | C[C@H](CO)N1C[C@H](C)[C@@H](CN(C)S(=O)(=O)c2cn(C)cn2)OCCCC[C@H](C)Oc2ccc(NC(=O)CCCN(C)C)cc2C1=O | inactive: 0.978
23 | N#Cc1ccc(NCCNC(=N)N)nc1 | inactive: 0.98
24 | C[C@H](CO)N1C[C@H](C)[C@H](CN(C)Cc2ccncc2)OCCCC[C@H](C)Oc2ccc(NC(=O)Cc3ccccc3)cc2C1=O | inactive: 1.04
25 | N[C@@H](C(=O)O)c1ccc(C(=O)O)c(O)c1 | inactive: 0.982
26 | O=C1CCOCCN1 | inactive: 1
27 | CO[C@H]1CN(C)C(=O)c2cc(NS(=O)(=O)c3cn(C)cn3)ccc2OC[C@H](C)N(Cc2cccc(F)c2)C[C@@H]1C | inactive: 1.01
28 | C[C@@H]1CN([C@H](C)CO)C(=O)c2cccc(NC(=O)CCCCCC(=O)Nc3ccccc3N)c2O[C@@H]1CN(C)C(=O)Nc1ccc(F)cc1 | inactive: 1.01
29 | O=[N+]([O-])c1cncn1CCN1CCOCC1 | inactive: 0.978
30 | C[C@@H]1CN([C@H](C)CO)C(=O)c2cc(NC(=O)Cc3cn(C)c4ccccc34)ccc2O[C@@H]1CN(C)Cc1ccc(Oc2ccccc2)cc1 | inactive: 0.975
31 | CN(C)CC#Cc1ccc([C@@H]2[C@@H](CO)N3CCCCN(C(=O)CN(C)C)C[C@H]23)cc1 | inactive: 0.979
32 | C[C@@H]1CN([C@@H](C)CO)C(=O)Cc2cc(NS(=O)(=O)c3cccs3)ccc2O[C@H]1CN(C)Cc1ccc(-c2ccccc2)cc1 | inactive: 0.982
33 | COc1ccccc1-c1cnc2c(c1)C(=O)N([C@@H](C)CO)C[C@H](C)[C@@H](CN(C)C(=O)c1ccncc1)O2 | inactive: 1.01
34 | CC(C)C#Cc1cnc2c(c1)C(=O)N([C@@H](C)CO)C[C@H](C)[C@@H](CN(C)S(=O)(=O)c1cn(C)cn1)O2 | inactive: 0.971
35 | COc1ccc(CN(C)C[C@@H]2Oc3c(NC(=O)c4cc(C)nn4C)cccc3C(=O)N([C@H](C)CO)C[C@@H]2C)cc1 | inactive: 0.982
36 | C[C@H](CO)N1C[C@H](C)[C@@H](CN(C)C(=O)Nc2ccc(F)cc2)Oc2ccc(NC(=O)Nc3ccc(C(F)(F)F)cc3)cc2C1=O | inactive: 0.959
37 | O=C(C[C@H]1C[C@@H]2c3cc(NS(=O)(=O)c4ccc(F)cc4)ccc3O[C@@H]2[C@@H](CO)O1)NCc1ccccc1 | inactive: 1.03
38 | COc1ccc2c3c([nH]c2c1)[C@@H](CO)N(C[C@]13CCN(CC1)Cc1ccccc1F)S(=O)(=O)c1cn(cn1)C | inactive: 0.976
39 | O=C1COC(=O)N1C1CCNCC1 | inactive: 1
40 | C=CCOC(=O)[C@H]1[C@@H]2C(=O)O[C@@H](c3ccccc3)[C@@H](c3ccccc3)N2[C@@H](c2ccc(OCCOC(=O)[C@H]3C[C@H]4C(=O)N[C@@H](Cc5ccccc5)C(=O)N4[C@H]3c3ccc(O)cc3)cc2)[C@]12C(=O)Nc1ccccc12 | inactive: 1.08

Row | Compound | relative growth
41 | C[C@@H]1CCCCO[C@@H](CN(C)Cc2ccc3c(c2)OCO3)[C@@H](C)CN([C@H](C)CO)C(=O)c2cc(NS(=O)(=O)c3cccs3)ccc2O1 | inactive: 1.02
42 | CC(C)NC(=O)Nc1ccc2c(c1)C(=O)N([C@H](C)CO[Si](C)(C)C(C)(C)C)C[C@@H](C)[C@H](CN(C)S(=O)(=O)c1ccc(Cl)cc1)O2 | inactive: 1
43 | Cc1ccccc1NCC(=O)NN | inactive: 1.04
44 | CC(C)NC(=O)Nc1ccc2c(c1)CC(=O)N([C@H](C)CO)C[C@@H](C)[C@@H](CN(C)S(=O)(=O)c1ccc(F)cc1)O2 | inactive: 1.01
45 | COc1ccc(NC(=O)Nc2ccc3c(c2)C(=O)N([C@H](C)CO)C[C@@H](C)[C@H](CN(C)S(=O)(=O)c2ccc(C)cc2)OCCCC[C@@H](C)O3)cc1 | inactive: 1.01
46 | C/C=C/c1cccc(-c2nc(C(=O)NCc3ccccc3)cc3c2[C@H](CCO)N([S@@](=O)C(C)(C)C)C3)c1 | inactive: 1.02
47 | C[C@H]1CN([C@@H](C)CO)C(=O)c2cc(NC(=O)Nc3ccc(C(F)(F)F)cc3)ccc2O[C@@H]1CN(C)Cc1ccncc1 | inactive: 1.01
48 | Cc1ccc(S(=O)(=O)N(C)C[C@@H]2OCCCC[C@H](C)Oc3ccc(NS(=O)(=O)c4ccc(Cl)cc4)cc3C(=O)N([C@@H](C)CO)C[C@H]2C)cc1 | inactive: 1.03
49 | C[C@@H]1CCCCO[C@H](CN(C)S(C)(=O)=O)[C@@H](C)CN([C@@H](C)CO)C(=O)c2cc(NC(=O)Nc3cccc4ccccc34)ccc2O1 | inactive: 1
50 | C[C@@H]1CN([C@@H](C)CO)S(=O)(=O)c2ccc(-c3ccc(F)cc3)cc2O[C@H]1CN(C)S(C)(=O)=O | inactive: 0.998
51 | N[C@@H]1CONC1=O | inactive: 0.987
52 | C[C@@H]1CN([C@@H](C)CO)C(=O)c2cc(NC(=O)C3CCCCC3)ccc2O[C@@H](C)CCCCO[C@@H]1CN(C)CC1CCCCC1 | inactive: 0.997
53 | Oc1c(Cl)cc(Cl)cc1Sc1cc(Cl)cc(Cl)c1O | inactive: 0.202
54 | C[C@@H]1CN([C@H](C)CO)C(=O)c2cccc(NS(C)(=O)=O)c2O[C@@H]1CN(C)Cc1ccc(C(=O)O)cc1 | inactive: 0.986
55 | O=C(C[C@@H]1C=C[C@@H](NC(=O)CN2CCOCC2)[C@H](CO)O1)NCCc1ccncc1 | inactive: 0.993
56 | Cc1ccc(S(=O)(=O)N(C)C[C@@H]2Oc3c(NS(C)(=O)=O)cccc3C(=O)N([C@@H](C)CO)C[C@H]2C)cc1 | inactive: 0.995
57 | C[C@@H]1CN([C@@H](C)CO)C(=O)Cc2cc(NC(=O)Nc3ccc(C(F)(F)F)cc3)ccc2O[C@@H]1CN(C)Cc1ccc(-c2ccccc2)cc1 | inactive: 1.01
58 | Cc1noc(C)c1S(=O)(=O)Nc1ccc2c(c1)C(=O)N([C@H](C)CO)C[C@H](C)[C@H](CN(C)C(=O)Nc1cccc3ccccc13)OCCCC[C@H](C)O2 | inactive: 1.02
59 | COc1ccc(S(=O)(=O)N(C)C[C@@H]2Oc3ccc(NC(=O)c4ccncc4)cc3CC(=O)N([C@H](C)CO)C[C@@H]2C)cc1 | inactive: 0.995
60 | CC(C)CNC(=O)C(=O)NC[C@H]1OCCN1S(=O)(=O)c1ccc2c(c1)OCCO2 | inactive: 1.01

Source: the supplement of paper PMC9446081
